Laboratory results taken from publication PMC9409320.
Results are given in words; binding and its absence hold for the method and conditions named. Binding seen in cells or lysates may run through a third protein. Some results given as binding are weak or reduced against the parent protein; the word gives no strength.

Chains of the proteins cited; added tags and fusions are not shown. Lines headed by an entry give the natural chain unless they say otherwise; changes in a name come on top.
UniProt Q08775: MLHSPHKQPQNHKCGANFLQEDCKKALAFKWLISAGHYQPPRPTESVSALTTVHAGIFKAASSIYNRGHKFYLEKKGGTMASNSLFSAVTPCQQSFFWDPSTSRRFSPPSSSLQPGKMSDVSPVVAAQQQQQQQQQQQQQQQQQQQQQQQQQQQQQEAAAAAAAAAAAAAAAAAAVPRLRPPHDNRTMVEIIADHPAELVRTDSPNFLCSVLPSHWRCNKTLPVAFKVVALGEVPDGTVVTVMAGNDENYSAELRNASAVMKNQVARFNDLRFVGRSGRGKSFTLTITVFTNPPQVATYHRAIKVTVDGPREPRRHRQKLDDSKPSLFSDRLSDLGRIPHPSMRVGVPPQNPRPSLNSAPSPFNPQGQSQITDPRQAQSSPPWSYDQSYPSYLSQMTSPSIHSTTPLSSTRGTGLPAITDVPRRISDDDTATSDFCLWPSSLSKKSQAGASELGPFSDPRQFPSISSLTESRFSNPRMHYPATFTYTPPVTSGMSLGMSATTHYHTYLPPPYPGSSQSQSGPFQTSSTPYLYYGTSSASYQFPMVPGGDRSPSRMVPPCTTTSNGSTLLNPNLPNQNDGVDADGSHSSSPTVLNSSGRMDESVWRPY
UniProt Q8VI67: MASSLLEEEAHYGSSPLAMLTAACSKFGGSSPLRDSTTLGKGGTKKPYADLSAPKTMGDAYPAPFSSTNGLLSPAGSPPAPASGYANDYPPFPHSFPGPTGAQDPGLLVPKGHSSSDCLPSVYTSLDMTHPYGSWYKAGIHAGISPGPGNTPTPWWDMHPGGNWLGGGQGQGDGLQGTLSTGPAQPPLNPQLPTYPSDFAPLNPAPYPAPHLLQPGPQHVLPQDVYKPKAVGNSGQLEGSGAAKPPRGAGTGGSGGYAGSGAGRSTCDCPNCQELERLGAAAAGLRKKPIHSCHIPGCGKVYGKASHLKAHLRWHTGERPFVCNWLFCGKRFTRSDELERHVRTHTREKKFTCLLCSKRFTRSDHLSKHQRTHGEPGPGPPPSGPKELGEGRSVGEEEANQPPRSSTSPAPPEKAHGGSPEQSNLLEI
UniProt P17742: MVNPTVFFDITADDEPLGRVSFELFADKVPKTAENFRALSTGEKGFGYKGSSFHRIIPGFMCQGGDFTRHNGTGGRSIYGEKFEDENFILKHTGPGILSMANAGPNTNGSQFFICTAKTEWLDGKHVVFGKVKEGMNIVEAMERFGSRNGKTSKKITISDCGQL

Key:
Myc-tagged Runx2 = Myc-tagged Runx2 (UniProt Q08775); test: co-IP; HEK293 cells co-transfected with HA-CypA and Myc-tagged transcription factor; immunoprecipitation with Myc antibody, immunoblot with HA or Myc antibody; lysis in 25 mM HEPES pH 7.4, 150 mM NaCl, 1% NP-40, 0.25% sodium deoxycholate
Osterix = Osterix (UniProt Q8VI67); test: as above
GST-CypA = GST-CypA (UniProt P17742); test: pull-down; GST-CypA on glutathione Sepharose beads incubated with total cell lysates for 4 h at 4 °C; washed with RB buffer (20 mM HEPES pH 7.4, 120 mM NaCl, 10% glycerol, 2 mM EDTA); immunoblot; only the target purified
HA-tagged Cyclophilin A = HA-tagged Cyclophilin A (UniProt P17742); test: co-IP; HEK293 cells co-transfected with HA-CypA and Myc-tagged Runx2 deletion mutants; immunoprecipitation with HA antibodies, immunoblot with HA or Myc antibodies

binding (Myc-tagged Runx2) | binding (Osterix) | binding (GST-CypA) | binding (HA-tagged Cyclophilin A) | Substance
binds | no binding | – | – | HA-tagged Cyclophilin A (from UniProt P17742 1-164)
– | – | binds | – | Myc-tagged Runx2 (from UniProt Q08775 1-607)
– | – | binds | binds | Myc-tagged Runx2 deletion mutant, Runt domain (from UniProt Q08775 187-315) (domain or fragment)
